# The list shows a part of the results. At the low end of the ranking the order means little.
# Biological target: GST-SBP-SLBP (stem-loop binding protein) (UniProt Q14493)
# Assay: targeted RNA Bind-n-Seq;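 also: DESeq read counts versus GST-SBP nonspecific binding control pulldown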
# Details: RBNS binding buffer: 25 mM Tris pH 7.5, 150 mM KCl, 3 mM MgCl2, 0.1% Tween, 0.5 mg/mL BSA, 1 mM DTT; 27 nM protein, 750 pM RNA pool; temperature not stated; high values mean tight binding
row,Sequence,binding signal (log2 fold change)
1,GGUCACGUCUCAAUCAACUCUUUCUCCAGGGAAAUCCCUGGUUUUCUCAACAGCUCGCAGUCAAG,0.0165
2,GGUCACGUCUCAAUCAACUCUAUUCCAGGAGUUUACUCCUGUUUUCUCAACAGCUCGCAGUCAAG,0.0145
3,GGUCACGUCUCAAUCAACUCAAUCCCCAGGGAAACCCCUGGUUUAUUCAACAGCUCGCAGUCAAG,-0.111
4,GGUCACGUCUCAAUCAACUCACACGAGGGGGGGAAAACCCCUUUGCCCUCAAUAUCAACAGCUCGCAGUCAAG,-0.262
5,GGUCACGUCUCAAUCAACUCAUCUUCCAGGGAAAGCCCUGGUUAUCUCAACAGCUCGCAGUCAAG,0.0814
6,GGUCACGUCUCAAUCAACUCCAUAGAGGGGGGGAAAACCCCUUUGCCCUCCAACUCAACAGCUCGCAGUCAAG,-0.237
7,GGUCACGUCUCAAUCAACUCAUCUUCCAGGGAAAACCCUGGUAAUUUCAACAGCUCGCAGUCAAG,0.171
8,GGUCACGUCUCAAUCAACUCAACUUCAGGAGUUUCCUCCUGUAAUCUCAACAGCUCGCAGUCAAG,-0.0198
9,GGUCACGUCUCAAUCAACUCUUUCUCAGGAGUUUCCUCCUGCUAUUUCAACAGCUCGCAGUCAAG,-0.0274
10,GGUCACGUCUCAAUCAACUCAACUCCCAGGGAAAGCCCUGGUAAUUUCAACAGCUCGCAGUCAAG,-0.169
11,GGUCACGUCUCAAUCAACUCAGUCUCCAGGGAAAUCCCUGGCAUUCUCAACAGCUCGCAGUCAAG,0.00506
12,GGUCACGUCUCAAUCAACUCUUACGAGGGGGGGAAAACCCCUUUGCCCUCAAUUUCAACAGCUCGCAGUCAAG,-0.0436
13,GGUCACGUCUCAAUCAACUCAACUUCAGGAGUUUCCUCCUGCUUUCUCAACAGCUCGCAGUCAAG,0.231
14,GGUCACGUCUCAAUCAACUCAUUCUCCAGGGAAAGCCCUGGCAUUUUCAACAGCUCGCAGUCAAG,0.0333
15,GGUCACGUCUCAAUCAACUCAUCCCCCAGGGAAAACCCUGGUAUUCUCAACAGCUCGCAGUCAAG,-0.304
16,GGUCACGUCUCAAUCAACUCAUUCUCCAGGGAAAGCCCUGGUUUUCUCAACAGCUCGCAGUCAAG,-0.109
17,GGUCACGUCUCAAUCAACUCUUCGUCCAGGGAAACCCCUGGUAUUUUCAACAGCUCGCAGUCAAG,0.0873
18,GGUCACGUCUCAAUCAACUCAUCUCCAGGAGUUUACUCCUGUUUAUUCAACAGCUCGCAGUCAAG,-0.0985
19,GGUCACGUCUCAAUCAACUCAAUCUCAGGAGUUUACUCCUGCAAACUCAACAGCUCGCAGUCAAG,-0.0242

row,Sequence,binding signal (log2 fold change)
1,GGUCACGUCUCAAUCAACUCUUUCCCAGGAGUUUCCUCCUGUAUUUUCAACAGCUCGCAGUCAAG,0.194
2,GGUCACGUCUCAAUCAACUCUUUUCCCAGGGAAAUCCCUGGCAAUUUCAACAGCUCGCAGUCAAG,0.0515
3,GGUCACGUCUCAAUCAACUCAAAAGAGGGGGGGAAAACCCCUUUACCCUCACAUUCAACAGCUCGCAGUCAAG,-0.177
4,GGUCACGUCUCAAUCAACUCAUUCUCCAGGGAAAACCCUGGCUUUCUCAACAGCUCGCAGUCAAG,0.0843
5,GGUCACGUCUCAAUCAACUCUACUUCCAGGGAAAGCCCUGGUUUACUCAACAGCUCGCAGUCAAG,0.0147
6,GGUCACGUCUCAAUCAACUCUUCGUCCAGGGAAAACCCUGGCUAUUUCAACAGCUCGCAGUCAAG,-0.161
7,GGUCACGUCUCAAUCAACUCAUUCCCCAGGGAAAUCCCUGGUUAACUCAACAGCUCGCAGUCAAG,-0.269
8,GGUCACGUCUCAAUCAACUCAUUCUCCAGGGAAAUCCCUGGCAUUCUCAACAGCUCGCAGUCAAG,-0.109
9,GGUCACGUCUCAAUCAACUCAUUUCCAGGAGUUUACUCCUGUUAUCUCAACAGCUCGCAGUCAAG,0.184
10,GGUCACGUCUCAAUCAACUCAUUCCCCAGGGAAAUCCCUGGUUAAUUCAACAGCUCGCAGUCAAG,0.0671
11,GGUCACGUCUCAAUCAACUCUUCGCCCAGGGAAACCCCUGGUAUUUUCAACAGCUCGCAGUCAAG,-0.0467
12,GGUCACGUCUCAAUCAACUCUUCGUCAGGAGUUUCCUCCUGUAUACUCAACAGCUCGCAGUCAAG,0.0669
13,GGUCACGUCUCAAUCAACUCAGUCUCCAGGGAAAACCCUGGUAUUUUCAACAGCUCGCAGUCAAG,-0.158
14,GGUCACGUCUCAAUCAACUCAUUCUCAGGAGUUUGCUCCUGCUAUCUCAACAGCUCGCAGUCAAG,0.0748
15,GGUCACGUCUCAAUCAACUCAAUUCCCAGGGAAACCCCUGGUUUUUUCAACAGCUCGCAGUCAAG,0.0836
16,GGUCACGUCUCAAUCAACUCAAUCUCCAGGGAAAACCCUGGUAUUUUCAACAGCUCGCAGUCAAG,0.117
17,GGUCACGUCUCAAUCAACUCAACUCCCAGGGAAAACCCUGGCAAUCUCAACAGCUCGCAGUCAAG,-0.0246
18,GGUCACGUCUCAAUCAACUCUUUUCCCAGGGAAAGCCCUGGUAUUUUCAACAGCUCGCAGUCAAG,-0.119
